Assay results reported in patent US20250163048A1 (Tango Therapeutics, Inc., priority 2022, published 2025).

Legend:
[1] = test system: HAP1 MTAP-deleted cell line; experiment: SDMA in-cell western assay, HAP1 MTAP-deleted; details: for IC50 / IC90: Homo sapiens; for Hap1 MTAP intact/deleted ratio: IC50 ratio between HAP1 MTAP-intact and HAP1 MTAP-deleted cell line
[2] = test system: HAP1 MTAP-intact cell line; experiment: SDMA in-cell western assay, HAP1 MTAP-intact; details: Homo sapiens
[3] = test system: MTAP-deleted cell line; experiment: viability assay for the MTAP-deleted cell line; format: cell-based; details: Homo sapiens, HAP1, viability assay
[4] = HAP1, read-out: Hap1 MTAP deleted IC50, SDMA in-cell western, HAP1 MTAP-deleted cell line
[5] = HAP1, read-out: Hap1 MTAP deleted IC90, SDMA in-cell western, HAP1 MTAP-deleted cell line
[6] = HAP1, read-out: Hap1 MTAP intact IC50, SDMA in-cell western, HAP1 MTAP-intact cell line
[7] = HAP1, read-out: Hap1 MTAP deleted IC50, SDMA in-cell western assay, HAP1 MTAP-deleted cell line
[8] = HAP1, read-out: Hap1 MTAP deleted IC90, SDMA in-cell western assay, HAP1 MTAP-deleted cell line
[9] = HAP1, read-out: Hap1 MTAP intact IC50, SDMA in-cell western assay, HAP1 MTAP-intact cell line

Row | Structure (SMILES) | IC50 [1, 4] [nM] | IC90 [1, 5] [nM] | Hap1 MTAP intact/deleted ratio ([1]; SDMA in-cell western) | IC50 [2, 6] [nM] | IC50 [3] [nM] | IC50 ([1]; HAP1, read-out: Hap1 MTAP deleted IC50) [nM] | IC90 ([1]; HAP1, read-out: Hap1 MTAP deleted IC90) [nM] | IC50 ([2]; HAP1, read-out: Hap1 MTAP intact IC50) [nM] | IC50 [1, 7] [nM] | IC90 [1, 8] [nM] | Hap1 MTAP intact/deleted ratio ([1]; SDMA in-cell western assay) | IC50 [2, 9] [nM]
1 | C[C@H]1CC[C@H](c2ccc3sc([C@H]4CCN(C)C[C@@H]4C)nc3c2)N(C(=O)C(=O)Nc2cncc3cn[nH]c23)C1 (relative stereo) [Compound 14, 2-oxo-N-(1H-pyrazolo[4,3-c]pyridin-7-yl)-2-[(2R,5S)-5-methyl-2-[2-[rel-(3R,4S)-1,3-dimethyl-4-piperidyl]-1,3-benzothiazol-5-yl]-1-piperidyl]acetamide] | < 5 | < 75 | B (“B” indicates an IC50 ratio greater than or equal to 15 fold but lower than 30 fold) | 5 to 50 | < 100 | – | – | – | – | – | – | –
2 | C[C@H]1CC[C@H](c2ccccc2)N(C(=O)C(=O)Nc2cnc(N)c3c2CO[C@@H]3C)C1 (relative stereo) [Compound 192, 2-oxo-N-[rel-(3R)-4-amino-3-methyl-1,3-dihydrofuro[3,4-c]pyridin-7-yl]-2-[rac-(2R,5S)-5-methyl-2-phenyl-1-piperidyl]acetamide] | 5 to 50 | < 75 | A (“A” indicates an IC50 ratio greater than or equal to 30 fold) | > 50 | < 100 | – | – | – | – | – | – | –
3 | C[C@H]1CC[C@H](c2ccc3sc(C4(C)CCN(C)CC4)nc3c2)N(C(=O)C(=O)Nc2cncc3cn[nH]c23)C1 [Compound 132, 2-((2R,5S)-2-(2-(1,4-dimethylpiperidin-4-yl)benzo[d]thiazol-5-yl)-5-methylpiperidin-1-yl)-2-oxo-N-(1H-pyrazolo[4,3-c]pyridin-7-yl)acetamide] | – | – | B (“B” indicates an IC50 ratio greater than or equal to 15 fold but lower than 30 fold) | – | < 100 | < 5 | < 75 | 5 to 50 | – | – | – | –
4 | CCN(C)c1cccc([C@H]2CCCCN2C(=O)C(=O)Nc2cnc(N)c3cn[nH]c23)c1 [Compound 267] | – | – | – | – | < 100 | – | – | – | < 5 | < 75 | A (“A” indicates an IC50 ratio greater than or equal to 30 fold) | > 50
5 | C[C@H]1CC[C@H](c2ccc(N3CCN(C)CC3)cc2)N(C(=O)C(=O)Nc2cnc(N)c3c2cnn3C)C1 [Compound 191, N-(7-Amino-1-methyl-pyrazolo[3,4-c]pyridin-4-yl)-2-oxo-2-[(2R,5S)-5-methyl-2-[4-(4-methylpiperazin-1-yl)phenyl]-1-piperidyl]acetamide] | < 5 | < 75 | B (“B” indicates an IC50 ratio greater than or equal to 15 fold but lower than 30 fold) | > 50 | < 100 | – | – | – | – | – | – | –
6 | C[C@@H]1CC[C@@H](c2ccn(CCN(C)C)n2)N(C(=O)C(=O)Nc2cnc(N)c3cn[nH]c23)C1 (racemic) [Compound 224, N-(4-Amino-1H-pyrazolo[4,3-c]pyridin-7-yl)-2-oxo-2-[rac-(2R,5S)-2-[1-[2-(dimethylamino)ethyl]pyrazol-3-yl]-5-methyl-1-piperidyl]acetamide] | – | – | – | – | < 100 | – | – | – | 5 to 50 | > 125 | C (“C” indicates an IC50 ratio of less than 15 fold) | > 50
7 | CC(C)n1nccc1[C@H]1CC[C@@H](C)CN1C(=O)C(=O)Nc1cnc(N)c2cn[nH]c12 (stereo in doubt) [Compound 234, N-(4-Amino-1H-pyrazolo[4,3-c]pyridin-7-yl)-2-oxo-2-[rac-(2R,5R)-2-(2-isopropylpyrazol-3-yl)-5-methyl-1-piperidyl]acetamide] | – | – | – | – | 100 to 1000 | – | – | – | > 50 | > 125 | B (“B” indicates an IC50 ratio greater than or equal to 15 fold but lower than 30 fold) | > 50
8 | C[C@H]1CC[C@H](C2CCC(F)(F)CC2)N(C(=O)C(=O)Nc2cnc(N)c3cn[nH]c23)C1 (racemic) [Compound 220, N-(4-Amino-2H-pyrazolo[4,3-c]pyridin-7-yl)-2-oxo-2-[rac-(2R,5S)-2-(4,4-difluorocyclohexyl)-5-methyl-1-piperidyl]acetamide] | – | – | – | – | < 100 | – | – | – | 5 to 50 | – | B (“B” indicates an IC50 ratio greater than or equal to 15 fold but lower than 30 fold) | > 50
9 | Cc1cc([C@H]2CC[C@H](C)CN2C(=O)C(=O)Nc2cnc(N)c3cn[nH]c23)n(C)n1 (racemic) [Compound 259, N-(4-Amino-1H-pyrazolo[4,3-c]pyridin-7-yl)-2-oxo-2-[rac-(2R,5S)-2-(2,5-dimethylpyrazol-3-yl)-5-methyl-1-piperidyl]acetamide] | – | – | – | – | 100 to 1000 | – | – | – | < 5 | – | A (“A” indicates an IC50 ratio greater than or equal to 30 fold) | > 50
10 | C[C@@H]1C[C@@H](c2nc3cc([C@H]4CC[C@H](C)CN4C(=O)C(=O)Nc4cncc5cn[nH]c45)ccc3s2)CN(C)C1 (single isomer, unassigned) [Compound 162] | < 5 | < 75 | B (“B” indicates an IC50 ratio greater than or equal to 15 fold but lower than 30 fold) | 5 to 50 | < 100 | – | – | – | – | – | – | –
11 | CC(C)n1ncc2cc([C@H]3CC[C@H](C)CN3C(=O)C(=O)Nc3cnc(N)c4cn[nH]c34)ccc21 (racemic) [Compound 266, N-(4-Amino-1H-pyrazolo[4,3-c]pyridin-7-yl)-2-oxo-2-[rac-(2R,5S)-2-(1-isopropylindazol-5-yl)-5-methyl-1-piperidyl]acetamide] | – | – | – | – | < 100 | – | – | – | < 5 | < 75 | C (“C” indicates an IC50 ratio of less than 15 fold) | 5 to 50
12 | C[C@H]1CC[C@H](c2ccc3cn(C4CCN(C)CC4)nc3c2)N(C(=O)C(=O)Nc2cncc3c(N)nccc23)C1 [Compound 1, N-(8-amino-2,7-naphthyridin-4-yl)-2-oxo-2-[(2R,5S)-5-methyl-2-[2-(1-methyl-4-piperidyl)indazol-6-yl]-1-piperidyl]acetamide] | < 5 | < 75 | A (“A” indicates an IC50 ratio greater than or equal to 30 fold) | > 50 | < 100 | – | – | – | – | – | – | –
13 | C[C@H]1CC[C@H](c2ccc3scnc3c2)N(C(=O)C(=O)Nc2cnc(N)c3cc[nH]c23)C1 [Compound 123] | < 5 | < 75 | C (“C” indicates an IC50 ratio of less than 15 fold) | > 50 | 100 to 1000 | – | – | – | – | – | – | –
14 | C[C@H]1CC[C@H](c2ccc3sc(C4CCN(C5CC5)CC4)nc3c2)N(C(=O)C(=O)Nc2cnc3c(c2)C(=O)NCC3)C1 [Compound 4, 2-((2R,5S)-2-(2-(1-cyclopropylpiperidin-4-yl)benzo[d]thiazol-5-yl)-5-methylpiperidin-1-yl)-2-oxo-N-(5-oxo-5,6,7,8-tetrahydro-1,6-naphthyridin-3-yl)acetamide] | 5 to 50 | – | C (“C” indicates an IC50 ratio of less than 15 fold) | > 50 | 100 to 1000 | – | – | – | – | – | – | –
15 | Cc1ccc([C@H]2CC[C@H](C)CN2C(=O)C(=O)Nc2cnc(N)c3cn[nH]c23)cc1C (racemic) [Compound 208, N-(4-Amino-1H-pyrazolo[4,3-c]pyridin-7-yl)-2-oxo-2-[rac-(2R,5S)-2-(3,4-dimethylphenyl)-5-methyl-1-piperidyl]acetamide] | – | – | – | – | < 100 | – | – | – | < 5 | < 75 | B (“B” indicates an IC50 ratio greater than or equal to 15 fold but lower than 30 fold) | 5 to 50
16 | C[C@H]1CC[C@H](c2ccc3sc(C4(CN(C)C)COC4)nc3c2)N(C(=O)C(=O)Nc2cncc3cn[nH]c23)C1 [Compound 112, 2-((2R,5S)-2-(2-(3-((dimethylamino)methyl)oxetan-3-yl)benzo[d]thiazol-5-yl)-5-methylpiperidin-1-yl)-2-oxo-N-(1H-pyrazolo[4,3-c]pyridin-7-yl)acetamide] | < 5 | < 75 | B (“B” indicates an IC50 ratio greater than or equal to 15 fold but lower than 30 fold) | > 50 | < 100 | – | – | – | – | – | – | –
17 | C[C@H]1CC[C@H](c2ccc3sc(CCCN(C)C)nc3c2)N(C(=O)C(=O)Nc2cncc3cn[nH]c23)C1 [Compound 72, 2-((2R,5S)-2-(2-(3-(dimethylamino)propyl)benzo[d]thiazol-5-yl)-5-methylpiperidin-1-yl)-2-oxo-N-(1H-pyrazolo[4,3-c]pyridin-7-yl)acetamide] | < 5 | < 75 | A (“A” indicates an IC50 ratio greater than or equal to 30 fold) | > 50 | < 100 | – | – | – | – | – | – | –
18 | Cc1cnc2cc(NC(=O)C(=O)N3C[C@@H](C)CC[C@@H]3c3ccc4sc(CCN(C)C)nc4c3)ccn12 [Compound 34, 2-((2R,5S)-2-(2-(2-(dimethylamino)ethyl)benzo[d]thiazol-5-yl)-5-methylpiperidin-1-yl)-N-(3-methylimidazo[1,2-a]pyridin-7-yl)-2-oxoacetamide] | 5 to 50 | – | A (“A” indicates an IC50 ratio greater than or equal to 30 fold) | > 50 | < 100 | – | – | – | – | – | – | –

Where two headings read alike, the source gives them in different places.
